According to article PMC5681660, “Reduced hepatitis B and D viral entry using clinically applied drugs as novel inhibitors of the bile acid transporter NTCP” (Scientific Reports, 2017):

Assays:
human NTCP [1] = molecular target: T1, human NTCP (Homo sapiens, UniProt Q14973); assay: Screening taurocholate uptake assay (96-well, [14C]taurocholate, 10 µM drug); details: for remaining activity at 10 µM: 10 min, read-out: %NTCP activity
T1 sequence (Q14973 1-349): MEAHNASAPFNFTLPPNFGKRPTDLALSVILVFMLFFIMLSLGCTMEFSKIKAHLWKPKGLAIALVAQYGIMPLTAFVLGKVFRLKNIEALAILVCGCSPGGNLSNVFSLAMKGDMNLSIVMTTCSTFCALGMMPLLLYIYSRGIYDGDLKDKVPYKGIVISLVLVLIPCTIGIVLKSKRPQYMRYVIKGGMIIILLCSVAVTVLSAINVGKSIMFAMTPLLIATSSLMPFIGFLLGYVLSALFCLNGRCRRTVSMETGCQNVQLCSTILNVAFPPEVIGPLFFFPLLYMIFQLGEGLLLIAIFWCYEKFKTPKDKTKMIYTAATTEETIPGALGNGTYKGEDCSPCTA

human NTCP [2] = molecular target: T1, human NTCP; assay: Screening fluorescent competitive Myrcludex B-FITC binding assay (96-well, 10 µM drug)
[3] = screen, 10 µM drug, [14C]taurocholate uptake
[4] = screen, 10 µM drug, Myrcludex B-FITC binding
[5] = 0.5 h, read-out: %NTCP binding, screen, 10 µM drug, Myrcludex B-FITC binding
[6] = Prestwick library screen, Myrcludex B-FITC binding, 10 µM drug
[7] = Prestwick library screen, [14C]taurocholate uptake, 10 µM drug

| SMILES | remaining activity at 10 µM (human NTCP [1]) [%] | remaining activity at 10 µM (human NTCP [2]; 0.5 h, read-out: %NTCP binding) [%] | other results |
| --- | --- | --- | --- |
| CC(C)C[C@H](CN)CC(=O)O [Pregabalin] | 111 |  | remaining activity at 10 µM (human NTCP [2]; 0.5 h, read-out: %NTCP binding, Prestwick library screen, 10 µM drug, Myrcludex B-FITC binding): 54.9% |
| CNS(=O)(=O)Cc1ccc2[nH]cc(CCN(C)C)c2c1 [Sumatriptan succinate] | 113 | 86 |  |
| Cc1cc2c(cc1S(N)(=O)=O)S(=O)(=O)CCC2 [Meticrane] | 144 | 111 |  |
| Cl.Clc1ccc(Cn2c(CN3CCCC3)nc3ccccc32)cc1 [Clemizole hydrochloride] |  |  | %NTCP activity (human NTCP [1]; [3]): 124.155%; %NTCP binding (human NTCP [2]; [4]): 60.3985% |
| O=C([O-])CCNC(=O)c1ccc(/N=N/c2ccc(O)c(C(=O)[O-])c2)cc1.[Na+].[Na+] [Balsalazide Sodium] |  |  | %NTCP activity (human NTCP [1]; [3]): 79.5523%; %NTCP binding (human NTCP [2]; [4]): 86.6059% |
| CC(Cc1ccc(O)cc1)NCC(O)c1cc(O)cc(O)c1 (stereo not drawn) [Fenoterol hydrobromide] | 59.7 |  | remaining activity at 10 µM (human NTCP [2]; [5]): 68.4% |
| CO[C@@]1(NC(=O)Cc2cccs2)C(=O)N2C(C(=O)O)=C(COC(N)=O)CS[C@@H]21 [Cefoxitin sodium salt] | 96.9 | 111 |  |
| O=S(=O)(O)c1cc(O)ccc1O [Ethamsylate] | 90.9 | 87.6 |  |
| CCN(CC)CCNC(=O)c1cc(S(C)(=O)=O)ccc1OC [Tiapride hydrochloride] | 131 | 44.4 |  |
| CN(C)CCCOc1nn(Cc2ccccc2)c2ccccc12 [Benzydamine hydrochloride] | 50.5 | 70.3 |  |
| CCCNC(C)(C)COC(=O)c1ccccc1 [Meprylcaine hydrochloride] | 68.6 | 104 |  |
| C[N+](C)(C)CCCCCC[N+](C)(C)C.O.O.[Br-].[Br-] [Hexamethonium dibromide dihydrate] |  |  | %NTCP activity (human NTCP [1]): 87.5079%; %NTCP binding (human NTCP [2]; [6]): 105.655% |
| S=C(NC1CCCCC1)N1CCC(c2cnc[nH]2)CC1 [Thioperamide maleate] | 59.4 |  | remaining activity at 10 µM (human NTCP [2]; [5]): 91.2% |
| CCC(=O)O[C@@H](O[P@](=O)(CCCCc1ccccc1)CC(=O)N1C[C@H](C2CCCCC2)C[C@H]1C(=O)O)C(C)C [Fosinopril] | 150 | 88.3 |  |
| CCCC(C)C1(CC)C(=O)NC(=O)NC1=O (stereo not drawn) [Pentobarbital] | 116 | 87.5 |  |
| CC(C)(CO)[C@@H](O)C(=O)NCCCO [Panthenol (D)] |  |  | %NTCP activity (human NTCP [1]; Prestwick library screen, 10 µM drug, [14C]taurocholate uptake): 123.189%; %NTCP binding (human NTCP [2]; Prestwick library screen, 10 µM drug, Myrcludex B-FITC binding): 109.837% |
| O=C1CN(/N=C/c2ccc(-c3ccc([N+](=O)[O-])cc3)o2)C(=O)[N-]1.[Na+] [Dantrolene sodium salt] |  |  | %NTCP activity (human NTCP [1]; [3]): 60.5703%; %NTCP binding (human NTCP [2]; [4]): 68.782% |
| CN(Cc1ccc(C(C)(C)C)cc1)Cc1cccc2ccccc12 [Butenafine Hydrochloride] | 123 | 87.9 |  |
| CCCCN(CCCC)CCC(O)c1cc2c(Cl)cc(Cl)cc2c2cc(C(F)(F)F)ccc12 (stereo not drawn) [Halofantrine hydrochloride] | 119 | 79.5 |  |
| Cl.Cl.Cl.Cl.Cl.NCCNCCNCCNCCN |  |  | %NTCP activity (human NTCP [1]; [7]): 96.2659%; %NTCP binding (human NTCP [2]; [6]): 85.0492% |
| CC[N+](C)(C)Cc1ccccc1Br [Bretylium tosylate] | 53.7 | 94 |  |
| O=C(O)C(O)C(O)C(=O)O.O=C(c1ccc(F)cc1)C1CCN(CCn2c(=O)[nH]c3ccccc3c2=O)CC1 [Ketanserin tartrate hydrate] |  |  | %NTCP activity (human NTCP [1]; [7]): 111.152%; %NTCP binding (human NTCP [2]; [6]): 71.289% |
| CC(C(=O)O)c1ccc(C(=O)c2cccs2)cc1 (stereo not drawn) [Suprofen] | 87.5 | 121 |  |
| Cn1cnc2c1c(=O)[nH]c(=O)n2C [Theobromine] | 94.5 | 85.1 |  |
| CC(C(=O)O)c1ccc2c(c1)[nH]c1ccc(Cl)cc12 (stereo not drawn) [Carprofen] | 58 | 118 |  |
| CCCCCCNC(=O)n1cc(F)c(=O)[nH]c1=O [Carmofur] | 82 | 71.7 |  |
| C[C@](N)(Cc1ccc(O)c(O)c1)C(=O)O [Methyldopa (L,-)] |  |  | %NTCP activity (human NTCP [1]; [7]): 58.8452%; %NTCP binding (human NTCP [2]; [6]): 56.8892% |

Counter-ions that a name gives are not always drawn. Like-named read-outs stand apart in the source and are kept apart here.
